# Laboratory results taken from the supplement of paper PMC11417369.
# The other results are listed elsewhere or left out.
# System: PfAP2-HC AP2 domain (GST-tagged)
# Experiment: gcPBM binding intensity (ln(normalized median fluorescence intensity)); higher = stronger DNA binding
# In short: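 After 1 h on an Agilent 4 × 180k array of primer-extended double-stranded 36-bp intergenic genomic probes and negative controls, bound GST-tagged P. falciparum DNA-binding domains were detected with Alexa488 anti-GST antibody and scanned at 488 nm. The domains had been expressed in E. coli, and binding took place in 1× PBS with 1% milk, 0.2 mg/ml BSA, 0.5% salmon testes DNA and 0.03% Triton X-100. Binding intensity is the highest Masliner-normalised natural-log median intensity across replicate spots of either probe orientation.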
row,Sequence,gcPBM binding intensity (ln)
1,AAAAAAAAAAAAAGGTGTACATGCAAAATAAATTCT [XGTACX_site4592],9.95
2,AAATAAATAAGAAACGCATGCATATATAATATATAA [TGCATGCA_site326],9.98
3,GTTATTTATAGACACACACACATGCATGCACATATA [CACACA_site6204],10.4
4,CATATGTTCATCATAGCACACATATATAAATTACAA [CACACA_site9177],9.63
5,ATATATATATATATTTGTACATATATACATAAAATT [XGTACX_site359],9.75
6,CACACCCACAGACACACACACACATATATATATATA [CACACA_site363],10.8
7,TTTAAAATGGGACTTTGAAAAAAAAAAAAAAAAACA [TGCATGCA_negctrl_site111],9.31
8,GAAAAAGTTATAAATTGTACTAAATATTAAATATTG [XGTACX_site7890],9.48
9,CATATATATTTGTTCACACACACACCCAAAAAAAAA [CACACA_site2476],10.3
10,TATAGGTATGTATGTACACACAAAAAATGGAATATA [CACACA_site7704],10.2
11,TATATATATATATATTGTACATAATGTATATATGTT [XGTACX_site3448],9.74
12,TATATATCATTTAAAACACACAAAAAAAAAAGTTAT [CACACA_site6191],9.76
13,GACTTTTCATTTATAGTGCAAGTTTTTTTTTTTTTT [GTGCAC_site9698],9.74
14,ATAAATATAAAAAAATGTACATATAGTAATACATAC [XGTACX_site508],9.79
15,GAAATAAAAAGAAATGCATGTAATTTTTTTTTTTTT [TGCATGCA_site928],9.6
16,ATAAGTATAAGAATCAGTACACAGTTTCTACATACT [XGTACX_site5834],9.64
17,TTGTATTTTTAAATGACACACACATATATATATATA [CACACA_site8481],9.94
18,AATAAATAAGCACATACACACATACATACATACATA [CACACA_site6075],10.1
19,AAGTTATAAAAATAAAGTACAAAGTAGCTATTTTTT [XGTACX_site3144],9.74
20,ATTAAAACCAATTAAAAAAAATTTATAATGGAAGCA [TGCATGCA_negctrl_site273],9.43
21,TATTATTGTTGTTCATGTACACACTATAATAAAAGC [XGTACX_site8957],9.64
22,GAGATAAAATAAAACACACACATATATATATATAAT [CACACA_site5246],10.3

row,Sequence,gcPBM binding intensity (ln)
1,AATGACTAAATTTAAACACACAAGGGGAGTTTACTT [CACACA_site918],9.67
2,ATATATATATATATATGTACTTAATATTTCTTATTT [XGTACX_site6206],9.56
3,TTATTCAGAAAAAAAAAAAAAAAAAAAAAAAAAAAA [CACACA_negctrl_site1662],8.88
4,TATATATATGTGCAGTGTACTTTTTTTTTCTGTAAG [XGTACX_site3424],9.57
5,ATATGTAAAGAAAAGTAAACACTAATTTTAAACAAT [CACACA_negctrl_site11],9.79
6,TTTTTTTTAATTGTGATACGTATATTATTTTTTGAT [TGCATGCA_negctrl_site318],9.58
7,ATTTTTAATATTATTACACACACTAATAAAAAAAAA [CACACA_site8265],9.77
8,GAGAAGACATTACACAGTACCCAGGAAATCTACGGA [XGTACX_site1993],9.6
9,TCGACAAATGTATATACACACATTTGTAACATAAAT [CACACA_site560],9.88
10,TATAAAGGTGAAATTTGTACATAGTCATTTTTTAAT [XGTACX_site4811],9.52
11,TGATTAAAAGAGGGAAAAAAAAAAAAAAAAAAAAAA [CACACA_negctrl_site896],8.75
12,TGACGAAAAAAAAGGGTGCTTAGTATAACTTTAAAG,9.44
13,TTCTTTTTTAAACACACACACACAAGAAAATATATA [CACACA_site5680],10.3
14,TTTCTTATATAAGTGTACTAAAATATATATATGCAA [GTGCAC_negctrl_site546],9.36
15,ATTTTTTTTTTAAAATGTACATGAGAAATTGTATAT [XGTACX_site425],9.47
16,TAACATAATATAGACACACACATGTACATATGCCAA [CACACA_site1842],10.6
17,TATATTATTAATTAAGCACACATTATTTTTATAATA [CACACA_site3982],9.47
18,TAAAAAAATAAATATACACACATATATAAATATGTA [CACACA_site6641],9.74
19,TATGAATATCTATACACACACATATATATACTCACT [CACACA_site1597],10.2
20,CAAAGATATATAAACACACAAATATAACATATATAC [CACACA_site7395],9.99
21,TACACTTGTAATTGCGTGCACGAAGGATATATATAT,10
22,TATATTATTATATATTGTACTTTTTATATTTGCATT [XGTACX_site2978],9.83

row,Sequence,gcPBM binding intensity (ln)
1,TATGTATATTTTTTTGTGCACATATATATATATATA,9.79
2,ATATAATTATATAAATGTACTCATTCGTTATTTTGC [XGTACX_site6132],9.63
3,TACTATATCGATACCAGTACAGATTTATAAATAATA [XGTACX_site7491],9.46
4,AAATATAATAATAATTTAAGAATCTAATATTTTATA [CACACA_negctrl_site831],9.37
5,TATATTAAGTATAAGACACACATATAGTAATAGAAA [CACACA_site5176],10
6,TTATAAAAAAAAATAACACACAGACATAAGAATAAA [CACACA_site9383],10.2
7,AAGTGTCAAAGTTACACACACAAACTTGTCATTTTT [CACACA_site837],10.2
8,ATATAACTTTTCTTAACACACAAAAAACAAAAATAA [CACACA_site2380],9.71
9,GGTATACATATTAAATGTACATATTTTAACAATAAG [XGTACX_site4868],9.68
10,GACATATAAATATACACACATACGTAAGTATATTAA [CACACA_site1790],9.82
11,TTTTTATGGATATTTATATTATATTATGATTAAAAA [TGCATGCA_negctrl_site204],9.3
12,TGTATAATATATATATGTACTTATGTATAATATTAT [XGTACX_site4328],9.6
13,AAGATATCTAAGGAAATTAAACTACCAAAATATATA [TGCATGCA_negctrl_site338],9.59
14,TGCATAAAAGTAAAAACATGCATGCCGTGGTATCTT [TGCATGCA_site664],9.64
15,AATATATTTATAAGCACACACTAATAAACACAGACA [CACACA_site4377],10.5
16,AAATATATATATATATATATATATGTGTGTGTATAT [GTGCAC_negctrl_site1],10.1
17,GTACATAATTATTATGCACACATATTTTTATGTATT [CACACA_site8132],9.9
18,AATAATACAAAAGTTCAACAAAAAAAAAAAAAAAAT [CACACA_negctrl_site952],9.75
19,CTTTATAATATTTGTTGTACACAAATATAACATATT [XGTACX_site709],9.72
20,ATTTAAATATATTATTGTACATATACCTAATAAGAA [XGTACX_site6655],9.55
21,ACTCCTATATAAATGAACCATATTCATAATATATAT [CACACA_negctrl_site1636],9.64
22,AAATGAAAGAATTAAAGTACATTTATATAATTTTAA [XGTACX_site3540],9.54

row,Sequence,gcPBM binding intensity (ln)
1,AAGAGAAAAACATACACACACAACAAAATATGTATA [CACACA_site2719],10.4
2,TATCCCTTAGAATACACACCCATATGAGTGTGAACT [CACACA_site7398],9.63
3,TGTTTTGTTTTTTGGGGTACATGTTTTGTATTATAT [XGTACX_site7997],9.92
4,ATATCTTATGTTATCACACACACACGCACAAAACAG [CACACA_site6800],10.3
5,ATTTTTTTTATTTTTTATATAATTTTTTTATATTAT [CACACA_negctrl_site1521],9.77
6,TGTATTTATAAACATGCACACGTGGTTGTATTTATA [CACACA_site5762],9.77
7,ATTTGTTTACCTAAAAGTACAAATTTTTTATGTATA [XGTACX_site7689],9.55
8,ATATATATATATATATGTACATATATATATGTATAT [XGTACX_site3959],9.72
9,ATATTATTTTAAAGTACACACATATATTAATATATA [CACACA_site2315],9.76
10,TATACATACAGACCCACACACAAAAAAAAAAAAAAA [CACACA_site6536],10.1
11,AAGGCAAGCACTTAAACATGCATATAATAATATCAT [TGCATGCA_site698],9.53
12,ATAATATATATATATGCATGTACATATTTATCTTTA [TGCATGCA_site32],9.73
13,ATGTATTAAAAAAATTGTACTATAAAATGTAACCGC [XGTACX_site8083],9.79
14,AAAAAAAAAAAAAACATACACACAAATATATACATA [CACACA_site4010],10
15,GAATTTTTTTAATGTTGTACTTTTTTTTTTTTTTCT [XGTACX_site648],9.49
16,ACATATATATATATATATATATATATATTACATTTA [CACACA_negctrl_site627],9.66
17,ACATATTTTATTTTTTGTACACATATATTATTTTTT [XGTACX_site6528],10.2
18,TTTTTGTTAAACAGGGTGCTAATCTGAATTAATATT [GTGCAC_site9908],9.39
19,TTTCAAAAGTAATACTGTACTTATTTTTATGATTTA [XGTACX_site4184],9.55
20,TTATACATAAATTTTGTACACACAAAAAAAAAAAAG [CACACA_site8374],9.86
21,ATATTATTTATAGGGTGTACCTTATTATTATAAGAA [XGTACX_site7148],9.34
22,TAGAAAAACATTACGTGTACCAAACATCCTAGCAAC [XGTACX_site4888],10.2
